Results are given in words; binding and its absence hold for the method and conditions named. For some of these results: In cells and extracts the contact can be indirect. Some binding calls cover weakened binding; strength is not graded here. For some of these results: Sequences can lack the tags named with a protein.
Legend:
[1] = biological target: T1, Flag-Atf7IP(836–1270) (human) (UniProt Q6VMQ6); assay: co-IP; HEK293T cells co-transfected; lysate on anti-DYKDDDDK magnetic beads, eluted with FLAG peptide, blots with anti-FLAG, anti-HA, anti-Myc; 30mM HEPES pH 7.9, 400mM NaCl, 10% glycerol, 0.05% Tween-20, Benzonase; with or without co-expressed HA-Setdb1
T1 sequence: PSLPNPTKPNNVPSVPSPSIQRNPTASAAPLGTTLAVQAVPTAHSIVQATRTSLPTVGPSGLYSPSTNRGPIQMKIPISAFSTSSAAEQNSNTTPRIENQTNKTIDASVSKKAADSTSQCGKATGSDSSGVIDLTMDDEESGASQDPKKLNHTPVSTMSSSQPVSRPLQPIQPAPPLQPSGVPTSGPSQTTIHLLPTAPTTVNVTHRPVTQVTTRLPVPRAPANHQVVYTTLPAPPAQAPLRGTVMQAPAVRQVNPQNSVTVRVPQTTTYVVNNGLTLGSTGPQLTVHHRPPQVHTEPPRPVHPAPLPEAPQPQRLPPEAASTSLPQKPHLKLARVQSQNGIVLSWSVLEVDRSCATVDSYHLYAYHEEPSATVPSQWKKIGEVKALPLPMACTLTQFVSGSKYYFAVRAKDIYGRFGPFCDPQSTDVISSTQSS

[2] = biological target: T2, Flag-Atf7IP(1–448) (human) (UniProt Q6VMQ6); assay: as above
T2 sequence: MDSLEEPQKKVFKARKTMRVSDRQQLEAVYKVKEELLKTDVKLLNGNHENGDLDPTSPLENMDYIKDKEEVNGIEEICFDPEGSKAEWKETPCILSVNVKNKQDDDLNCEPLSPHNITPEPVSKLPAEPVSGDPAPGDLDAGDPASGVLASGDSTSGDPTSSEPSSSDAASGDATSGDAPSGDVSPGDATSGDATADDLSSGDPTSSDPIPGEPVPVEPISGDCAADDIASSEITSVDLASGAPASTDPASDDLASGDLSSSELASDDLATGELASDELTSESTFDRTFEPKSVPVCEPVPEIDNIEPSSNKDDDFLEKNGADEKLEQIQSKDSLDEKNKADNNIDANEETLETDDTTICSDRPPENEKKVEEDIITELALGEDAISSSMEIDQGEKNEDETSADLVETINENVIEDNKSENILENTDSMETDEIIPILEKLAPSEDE

FLAG-Atf7IP (human) = biological target: T3, FLAG-Atf7IP (human) (UniProt Q6VMQ6); assay: as above
T3 sequence: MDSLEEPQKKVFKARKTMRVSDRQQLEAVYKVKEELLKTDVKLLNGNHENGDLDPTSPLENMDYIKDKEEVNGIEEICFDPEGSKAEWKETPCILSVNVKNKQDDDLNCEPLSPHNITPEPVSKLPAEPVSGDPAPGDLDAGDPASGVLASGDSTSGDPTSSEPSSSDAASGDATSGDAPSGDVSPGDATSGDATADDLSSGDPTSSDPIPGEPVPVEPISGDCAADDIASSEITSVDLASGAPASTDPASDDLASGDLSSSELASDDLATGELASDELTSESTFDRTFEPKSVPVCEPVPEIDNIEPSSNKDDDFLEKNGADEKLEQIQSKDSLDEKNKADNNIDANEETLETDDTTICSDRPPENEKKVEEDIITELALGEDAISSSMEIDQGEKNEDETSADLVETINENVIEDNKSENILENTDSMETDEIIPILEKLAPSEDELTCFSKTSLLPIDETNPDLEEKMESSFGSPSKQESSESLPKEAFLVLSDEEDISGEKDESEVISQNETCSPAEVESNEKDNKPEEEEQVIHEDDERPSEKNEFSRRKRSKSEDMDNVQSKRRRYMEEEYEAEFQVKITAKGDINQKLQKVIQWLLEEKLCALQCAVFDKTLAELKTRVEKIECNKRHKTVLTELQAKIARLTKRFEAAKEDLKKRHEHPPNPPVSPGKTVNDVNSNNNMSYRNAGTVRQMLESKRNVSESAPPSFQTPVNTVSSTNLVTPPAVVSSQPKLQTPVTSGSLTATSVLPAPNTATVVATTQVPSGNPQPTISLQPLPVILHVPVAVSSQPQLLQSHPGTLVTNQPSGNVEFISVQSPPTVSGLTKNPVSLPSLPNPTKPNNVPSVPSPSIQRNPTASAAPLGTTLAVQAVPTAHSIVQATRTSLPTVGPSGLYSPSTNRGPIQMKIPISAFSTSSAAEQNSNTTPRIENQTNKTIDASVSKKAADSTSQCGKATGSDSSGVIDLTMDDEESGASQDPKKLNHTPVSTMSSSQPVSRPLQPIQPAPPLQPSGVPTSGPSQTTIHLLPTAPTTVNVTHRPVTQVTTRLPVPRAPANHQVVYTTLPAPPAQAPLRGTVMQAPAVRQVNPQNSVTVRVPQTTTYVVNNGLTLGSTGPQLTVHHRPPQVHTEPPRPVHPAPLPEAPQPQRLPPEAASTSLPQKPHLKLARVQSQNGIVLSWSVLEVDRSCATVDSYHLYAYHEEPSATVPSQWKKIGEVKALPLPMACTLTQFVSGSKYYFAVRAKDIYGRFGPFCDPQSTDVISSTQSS

[3] = biological target: T4, FLAG-Atf7IP(Δ574–666) (human) (UniProt Q6VMQ6); assay: as above
T4 sequence: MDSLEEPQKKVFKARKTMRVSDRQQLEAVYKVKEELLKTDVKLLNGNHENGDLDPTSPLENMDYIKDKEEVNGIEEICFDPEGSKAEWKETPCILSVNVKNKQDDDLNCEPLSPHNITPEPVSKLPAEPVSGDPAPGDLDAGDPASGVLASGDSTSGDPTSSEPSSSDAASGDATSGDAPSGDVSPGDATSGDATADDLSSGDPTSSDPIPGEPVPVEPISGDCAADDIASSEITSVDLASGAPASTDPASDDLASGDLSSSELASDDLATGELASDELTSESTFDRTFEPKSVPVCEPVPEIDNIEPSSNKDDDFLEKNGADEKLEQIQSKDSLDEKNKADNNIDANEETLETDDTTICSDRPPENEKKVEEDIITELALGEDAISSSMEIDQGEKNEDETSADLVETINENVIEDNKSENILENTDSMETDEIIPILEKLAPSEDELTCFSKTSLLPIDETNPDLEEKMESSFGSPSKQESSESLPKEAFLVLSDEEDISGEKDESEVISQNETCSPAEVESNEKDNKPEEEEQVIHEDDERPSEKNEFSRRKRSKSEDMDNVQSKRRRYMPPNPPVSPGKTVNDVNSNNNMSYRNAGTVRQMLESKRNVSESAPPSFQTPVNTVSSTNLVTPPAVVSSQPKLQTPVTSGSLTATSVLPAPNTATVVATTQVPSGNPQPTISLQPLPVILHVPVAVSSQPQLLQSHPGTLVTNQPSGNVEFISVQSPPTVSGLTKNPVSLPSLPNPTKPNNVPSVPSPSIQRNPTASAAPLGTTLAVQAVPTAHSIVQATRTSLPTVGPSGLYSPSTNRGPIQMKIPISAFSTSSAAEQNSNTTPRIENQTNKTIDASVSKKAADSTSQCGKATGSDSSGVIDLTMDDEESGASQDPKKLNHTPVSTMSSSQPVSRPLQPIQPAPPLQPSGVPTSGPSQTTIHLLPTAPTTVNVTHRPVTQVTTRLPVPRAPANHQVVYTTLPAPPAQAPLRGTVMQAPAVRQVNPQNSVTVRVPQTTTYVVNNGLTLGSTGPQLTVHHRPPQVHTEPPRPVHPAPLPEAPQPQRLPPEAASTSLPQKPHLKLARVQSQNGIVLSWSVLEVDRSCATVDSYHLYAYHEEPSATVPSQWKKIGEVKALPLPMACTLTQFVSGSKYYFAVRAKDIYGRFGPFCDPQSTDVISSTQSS

[4] = biological target: T5, Flag-Atf7IP(422–841) (human) (UniProt Q6VMQ6); assay: as above
T5 sequence: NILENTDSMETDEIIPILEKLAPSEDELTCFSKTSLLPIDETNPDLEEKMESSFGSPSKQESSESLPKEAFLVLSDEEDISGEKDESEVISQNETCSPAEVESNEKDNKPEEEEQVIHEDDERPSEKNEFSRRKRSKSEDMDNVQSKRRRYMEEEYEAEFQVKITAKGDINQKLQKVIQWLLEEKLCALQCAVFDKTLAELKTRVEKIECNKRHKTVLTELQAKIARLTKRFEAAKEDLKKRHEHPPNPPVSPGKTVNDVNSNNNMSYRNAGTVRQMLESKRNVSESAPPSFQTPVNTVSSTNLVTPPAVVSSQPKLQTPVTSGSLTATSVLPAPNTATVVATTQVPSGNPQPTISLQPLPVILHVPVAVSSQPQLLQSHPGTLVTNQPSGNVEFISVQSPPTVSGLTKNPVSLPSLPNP

HS-Atf7IP2(297–388) = biological target: T6, HS-Atf7IP2(297–388) (UniProt Q5U623); assay: sequential affinity purification of co-expressed proteins; MBP-Setdb1(2–115), HS-Atf7IP2(297–388) and Strep-Atf7IP2(297–388) co-expressed in E. coli; purified first by the His and then by the Strep tag
T6 sequence: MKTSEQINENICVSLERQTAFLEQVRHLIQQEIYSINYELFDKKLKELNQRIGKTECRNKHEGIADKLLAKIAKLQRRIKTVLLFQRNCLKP

[5] = biological target: T7, 6Xhis-SUMO-Atf7IP(574–666) (human) (UniProt Q6VMQ6); assay: sequential affinity purification of co-expressed proteins; MBP-Setdb1(2–115), HS-Atf7IP(574–666) and Strep-Atf7IP2(297–388) co-expressed in E. coli; purified first by the his and then by the strep tag
T7 sequence: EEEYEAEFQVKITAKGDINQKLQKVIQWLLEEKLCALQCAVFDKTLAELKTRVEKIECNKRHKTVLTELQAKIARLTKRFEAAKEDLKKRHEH

B1: Myc-Atf7IP (protein, UniProt Q6VMQ6 1-1270)
chain: MDSLEEPQKKVFKARKTMRVSDRQQLEAVYKVKEELLKTDVKLLNGNHENGDLDPTSPLENMDYIKDKEEVNGIEEICFDPEGSKAEWKETPCILSVNVKNKQDDDLNCEPLSPHNITPEPVSKLPAEPVSGDPAPGDLDAGDPASGVLASGDSTSGDPTSSEPSSSDAASGDATSGDAPSGDVSPGDATSGDATADDLSSGDPTSSDPIPGEPVPVEPISGDCAADDIASSEITSVDLASGAPASTDPASDDLASGDLSSSELASDDLATGELASDELTSESTFDRTFEPKSVPVCEPVPEIDNIEPSSNKDDDFLEKNGADEKLEQIQSKDSLDEKNKADNNIDANEETLETDDTTICSDRPPENEKKVEEDIITELALGEDAISSSMEIDQGEKNEDETSADLVETINENVIEDNKSENILENTDSMETDEIIPILEKLAPSEDELTCFSKTSLLPIDETNPDLEEKMESSFGSPSKQESSESLPKEAFLVLSDEEDISGEKDESEVISQNETCSPAEVESNEKDNKPEEEEQVIHEDDERPSEKNEFSRRKRSKSEDMDNVQSKRRRYMEEEYEAEFQVKITAKGDINQKLQKVIQWLLEEKLCALQCAVFDKTLAELKTRVEKIECNKRHKTVLTELQAKIARLTKRFEAAKEDLKKRHEHPPNPPVSPGKTVNDVNSNNNMSYRNAGTVRQMLESKRNVSESAPPSFQTPVNTVSSTNLVTPPAVVSSQPKLQTPVTSGSLTATSVLPAPNTATVVATTQVPSGNPQPTISLQPLPVILHVPVAVSSQPQLLQSHPGTLVTNQPSGNVEFISVQSPPTVSGLTKNPVSLPSLPNPTKPNNVPSVPSPSIQRNPTASAAPLGTTLAVQAVPTAHSIVQATRTSLPTVGPSGLYSPSTNRGPIQMKIPISAFSTSSAAEQNSNTTPRIENQTNKTIDASVSKKAADSTSQCGKATGSDSSGVIDLTMDDEESGASQDPKKLNHTPVSTMSSSQPVSRPLQPIQPAPPLQPSGVPTSGPSQTTIHLLPTAPTTVNVTHRPVTQVTTRLPVPRAPANHQVVYTTLPAPPAQAPLRGTVMQAPAVRQVNPQNSVTVRVPQTTTYVVNNGLTLGSTGPQLTVHHRPPQVHTEPPRPVHPAPLPEAPQPQRLPPEAASTSLPQKPHLKLARVQSQNGIVLSWSVLEVDRSCATVDSYHLYAYHEEPSATVPSQWKKIGEVKALPLPMACTLTQFVSGSKYYFAVRAKDIYGRFGPFCDPQSTDVISSTQSS
Q: B1 was tested. Which binding [1] did it give?
A: no binding

Q: And the binding [2]?
A: no binding

Q: And the binding (FLAG-Atf7IP (human))?
A: binds

Q: What about the binding [3] of the same binder?
A: no binding

Q: What about the binding [4] of the same binder?
A: binds

B2: Strep-Atf7IP2(297–388) (domain or fragment, UniProt Q5U623 297-388)
chain: MKTSEQINENICVSLERQTAFLEQVRHLIQQEIYSINYELFDKKLKELNQRIGKTECRNKHEGIADKLLAKIAKLQRRIKTVLLFQRNCLKP
Q: For B2, which binding (HS-Atf7IP2(297–388)) is on record?
A: binds

Q: What about the binding [5] of the same binder?
A: binds

From article doi:10.1101/2024.12.23.630145, “Setdb1 and Atf7IP form a hetero-trimeric complex that blocks Setdb1 nuclear export” (bioRxiv, 2024)
